From PubChem BioAssay AID1508624 (National Center for Advancing Translational Sciences (NCATS), 2021)
Hit rate of the full screen: of about 48,000 compounds, about 120 (0.25%) were called active. About 4% were inconclusive and are not listed. Calls come from the whole dose curve; as a rule, active = well fitted activation curve with a large enough effect; inconclusive = small, poorly fitted or top-dose-only effect, or another doubt; inactive = no such curve, though single readings can be large or run the other way. This is one part of the list.

Experiment: Primary qHTS for Identification of Small Molecule Activators of Huntingtin-Antisense Promoter Activity; note: nearly all actives have a fitted effect of over 55% in size
Conditions: HEK293 HTT-AS promoter firefly luciferase reporter (activity 0% = vehicle and -100% = no light), 24 h; series mostly up to 57.5 µM; activity change, positive = activation: at the top concentration
How it was run: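 HEK293 luciferase promoter-reporter cells (2,500/well) plated 24 h, then compounds added at up to 57.5 uM final for 24 h at 37 °C. Firefly luminescence by Dual-Glo, normalized to vehicle (0%) and zero RLU (-100%).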

SMILES	activity change, positive = activation
Cc1c(NC(=O)c2cc(-c3ccc(Cl)cc3)on2)c(=O)n(-c2ccccc2)n1C	inactive: -31.5%
CCOC(=O)c1[nH]c(C)c(CCC(=O)NCc2ccc(OC)cc2)c1C	inactive: -12.1%
COc1ccc(-c2cc(C)no2)cc1S(=O)(=O)N1CCN(c2ccccc2F)CC1	inactive: -52.6%
CC(=O)OCC(=O)[C@@]1(O)CC[C@H]2[C@@H]3CCC4=CC(=O)CC[C@]4(C)[C@H]3C(=O)C[C@@]21C	inactive: -10%
CC(=O)N1c2ccccc2CC1C(=O)NCc1cccc(Cl)c1 (stereo unspecified)	inactive: 14.7%
CC1CCN(c2nc3c(S(=O)(=O)c4ccc(Cl)cc4)nnn3c3ccsc23)CC1	inactive: -2.36%
COc1ccc(CCNc2nc3c(-c4cccc(F)c4)nnn3c3ccccc23)cc1OC	inactive: 3.72%
Cc1cccc(NC(=O)CSc2nc(-c3ccccc3Cl)nc3c2Cc2c(CO)cnc(C)c2O3)c1C	inactive: -15.3%
CCOc1cccc(C2CC(=O)Nc3cc4c(cc32)OCCO4)c1 (stereo unspecified)	inactive: -42.3%
COCCNC(=O)C1CCN(c2nc3ccccc3nc2C(F)(F)F)CC1	inactive: 2.7%
CCc1ccccc1NC(=O)c1ccc(CN2C(=O)CCn3nc(C)cc32)cc1	inactive: -17.9%
Cc1ccccc1NC(=O)CSc1cn(CC(=O)N(C(C)C)C(C)C)c2ccccc12	inactive: -20.6%
COc1cc2c(cc1OC)n(Cc1ccc([N+](=O)[O-])cc1)c(=O)n1nc(-c3ccccc3)nc21	inactive: 3.45%
COc1cc(C(=O)N2CCOCC2)cc(OC)c1OC	inactive: -4%
COc1cc2c(cc1OC)C(COc1ccc3c(C)cc(=O)oc3c1)N(C(=O)c1ccccc1F)CC2 (stereo unspecified)	inactive: 5.88%
COc1ccc(CNc2nc3ccccc3c3nc(-c4ccccc4)nn23)cc1	inactive: -13.5%
Cc1ccc(OCC(=O)Nc2nc(-c3ccc(Br)cc3)ns2)cc1C	inactive: -17.7%
Cc1ccccc1OCC(=O)Nc1ccc2nc(SCc3ccccc3)sc2c1	inactive: 13.6%
CC(=O)OCC(=O)[C@@]1(O)CC[C@H]2[C@@H]3CCC4=CC(=O)C=C[C@]4(C)[C@@]3(F)[C@@H](O)C[C@@]21C	inactive: -8.72%
COc1ccc(OCC(=O)NC2CC(=O)N(c3ccc4c(c3)OCCO4)C2)cc1 (stereo unspecified)	inactive: 19.1%
COc1ccc(-c2ccc(NS(=O)(=O)c3cccc(C)c3)cc2)nn1	inactive: -17%
CCc1ccc(NS(=O)(=O)c2c(C)nc3sc(CC)nn3c2=O)cc1	inactive: -37.2%
COc1ccc(CCNC(=O)C2CCN(c3nc4ccccc4nc3C(F)(F)F)CC2)c(OC)c1	inactive: -0.406%

SMILES	activity change, positive = activation
Cc1ccc(C)c(CN2C(=O)C3(c4ccccc42)N(c2ccc(Cl)cc2)C(=O)CS3(=O)=O)c1 (stereo unspecified)	inactive: -11.9%
Cc1ccc(S(=O)(=O)N2CCc3cc(C(=O)Nc4c(F)cccc4F)ccc32)cc1	inactive: -4.05%
CCC(C(=O)N1CCN(c2cc(C)ccc2C)CC1)n1nc(C)n2c(cc3occc32)c1=O (stereo unspecified)	inactive: -35.1%
CCOC(=O)Cn1c(=O)n(C2CCCCC2)c2nc(-c3ccc(C(C)C)cc3)nc(C(N)=O)c21	inactive: -17.7%
Cc1ccc2c(CN3CCN(C(=O)c4ccc(Br)cc4)CC3)cc(=O)oc2c1	inactive: -22.7%
COc1ccccc1NC(=O)CSC1=Nc2ccccc2C2=NC(CC(=O)NCc3ccccc3)C(=O)N12 (stereo unspecified)	inactive: 4.43%
CCOc1ccc(NC(=O)C2CCCN(c3nnc(C)c4c(C)n(-c5ccccc5)nc34)C2)cc1 (stereo unspecified)	inactive: -20.3%
Cn1c(=O)c2c(nc(N3CCOCC3)n2Cc2ccc(Br)cc2)n(C)c1=O	inactive: -16%
Cc1ccc(CN2CCN(C3CCNCC3)C(=O)C2=O)cc1	inactive: -2.26%
COc1ccc(NC(=O)C2CCN(c3ccc(Sc4ccc(C)cc4)nn3)CC2)c(OC)c1	inactive: -14.3%
O=C(CSc1ccc(-c2ccccn2)nn1)Nc1ccc(F)cc1F	inactive: -12.8%
Cc1ccc(CNC(=O)CCNS(=O)(=O)c2cccc3nsnc23)cc1	inactive: -6.95%
CCCN(CCC)CC(O)Cn1cc(/C=C/C(=O)c2ccc(Br)cc2)c2ccccc21 (stereo unspecified)	inactive: -8.58%
CCn1cc(C(=O)N(C)c2ccc(C(C)C)cc2)c2cc(OC)c(OC)cc2c1=O	inactive: -30.4%
Cc1c(CCC(=O)N2CCCCC2)c(=O)oc2cc3occ(C(C)(C)C)c3cc12	inactive: -12.6%
Cc1ccc2nc(NC(=O)CSc3ncc(C(=O)Nc4ccc(F)cc4)c(=O)n3C)sc2c1	inactive: -3.83%
CCc1ccc(NC(=O)Cn2c(=O)n(-c3ccc(OC)cc3)c(=O)c3ccc(C(=O)NCc4ccc(C)cc4)cc32)cc1	inactive: -1.49%
COCCn1cc(C(=O)NCCCOC(C)C)c2c3ccccc3n(C)c2c1=O	inactive: -13.1%
COc1ccc(CNC(=O)Cc2ccc(NC(=O)N3CCSc4ncccc43)cc2)cc1	inactive: -15.5%
Cc1ccc(Cc2nc3ccccc3nc2SCC(=O)N2CCN(c3ccc(F)cc3)CC2)cc1	inactive: 3.18%
CCOC(=O)c1noc2nc(C)n(Cc3cccc([N+](=O)[O-])c3)c(=O)c12	inactive: 9.84%
Cc1nnc(SCC(=O)NCc2ccccc2Cl)c2nn(-c3ccccc3)c(C)c12	inactive: -52.7%
CCc1ccc(-n2nc(C)c3c(C)cc(=O)n(CC(=O)Nc4ccc(F)cc4C)c32)cc1	inactive: 1.2%
